Test results from the supplement of paper PMC10126150.
Values marked as one replicate rest on one cluster of the flow cell; about a third of the high ones do not repeat.

System: ATP
Experiment: switch fluorescence ratio, 500 uM ATP over buffer (Cy3 cluster intensity, sum of 5 cycles each) (fold (ratio)); higher = stronger signal-on switching upon ATP binding; sequences stand for … in TCGTCGGCAGCGTCAGATGTGTATAAGAGACAGTTTTTTTTTTTTTTTTTTTTTTTTT…TC
Details: aptamer strand: ATP DNA aptamer (quencher-CACCTGGGGGAGTATTGCGGAGGAAGG + anchor), 100 nM annealed; ATP concentration: 500 uM; one replicate
In short: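 Imaging in selection buffer was followed by imaging after 15 min with 500 uM ATP at 22 °C, for Cy3-labelled switching-strand clusters annealed to 100 nM quencher-labelled ATP aptamer on a modified Illumina MiSeq flow-cell. Five of these buffer/ATP cycles ran, separated by NaOH stripping and re-annealing. The fluorescence ratio per cluster is summed target-cycle over summed buffer-cycle Cy3 intensity, averaged per switch-domain sequence; clusters outside 100-1000 RFU were removed.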
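Further: ATP exposure 15 min at 22 °C before imaging.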

| Sequence | switch fluorescence ratio |
| --- | --- |
| CTCTGTGTGG | 1.02 |
| ACGGTTTGTA | 1 |
| CCGGGTAGTG | 1.03 |
| AGCGTCTTAT | 1.01 |
| GGAATCCATT | 1.01 |
| AATAGTACCT | 1.17 |
| CTTACCTATT | 1.06 |
| GGGCATCATT | 0.973 |
| AGACCGAGGG | 1.03 |
| TGTTATGCTA | 0.994 |
| CGTCCCGTGA | 1.08 |
| AGGCTAGCCA | 0.981 |
| GATACTGCAA | 1.92 |
| CATATTTTGC | 1.02 |
| CCGATAAGTT | 1.04 |
| CACCCGGCCT | 1.06 |
| GGGATCTAGC | 0.998 |
| ACCTGGCTAA | 1.03 |
| ACAGTGACTA | 1.08 |
| GCGGATCTGG | 1.05 |
| GTCAGCCTTG | 0.963 |
| GGAGGGTATC | 1.11 |
| TCAGAAATGC | 2.45 |

| Sequence | switch fluorescence ratio |
| --- | --- |
| CGGGATGAGT | 1.01 |
| ATTACCCCTT | 1.06 |
| ATTGAACAGT | 0.981 |
| GCGTTGAGTT | 0.954 |
| GGGTTCTATC | 1.02 |
| GGAGCCGTGA | 0.973 |
| CCGTAGTATG | 2.37 |
| AGATTTGTAT | 0.94 |
| CGATTAACAG | 0.98 |
| AGACAAAGCA | 1.04 |
| GTGACTACGA | 1 |
| GTGTTGGTGC | 1.06 |
| TAATTTGTA | 1.01 |
| TGTTCCAAAT | 0.96 |
| GATGAAGGGT | 0.998 |
| TCTAAACATA | 1 |
| GGTTACTT | 0.989 |
| AAGCAAGAA | 2.18 |
| CACTACACGG | 1.58 |
| TGGCACATTA | 1.02 |
| ATTCCGAGTA | 1.11 |
| CAGAATGTCC | 1.01 |
| TGTGTCAGCA | 0.994 |

| Sequence | switch fluorescence ratio |
| --- | --- |
| AGAATCCACT | 1.02 |
| TGTGGGAGCA | 1.06 |
| ATAGAGTGCA | 1.04 |
| TATATTTAG | 0.985 |
| TCGGGCCGTA | 0.919 |
| TTTGCAGTA | 1.07 |
| ATTCGAGCAG | 1.04 |
| GCTCGACCCC | 1.43 |
| GCATAGTTCT | 1.02 |
| TTATTTGGG | 1 |
| TGAATAGTAA | 1.01 |
| TCATTCCGTC | 1.17 |
| TCTCGTTCTT | 0.943 |
| TTGGAAATTC | 1.81 |
| GACTACAATT | 1.04 |
| GAAATCAATG | 0.949 |
| CCATTGCTTC | 1.18 |
| ACTTTTATAA | 1.02 |
| TTACAGGTGG | 0.975 |
| GCGTATGTGG | 1.01 |
| GATAATCTG | 0.997 |
| ACATGCTCG | 0.998 |
| AACTAGAGCA | 0.984 |

| Sequence | switch fluorescence ratio |
| --- | --- |
| CGTGACGGG | 1.02 |
| TTGTGTGGCT | 1.02 |
| TCTGGGAGAT | 1.07 |
| TTGGGTAACA | 0.975 |
| ACGTTTACGA | 1.08 |
| GTATTTTATC | 0.941 |
| ATCCGGAGTT | 1.28 |
| TCGGAGGGAT | 1.01 |
| GTGACATG | 0.928 |
| ACTCGTGTTT | 1 |
| GGGGATCGGT | 0.979 |
| TATATCCGT | 1.02 |
| CCCGAAGGGT | 1.11 |
| CGTTCACCGC | 1.18 |
| CAATAAAGTG | 0.913 |
| CGTTTAGACA | 1.06 |
| TGTAGGTGTG | 0.976 |
| CGGCGTGAC | 1.15 |
| GTTTTTGGCC | 1.06 |
| TAATCATTTT | 0.978 |
| TCCGAAACCG | 1.23 |
| GGATTCAGTC | 1.02 |
| AATTCCACAT | 1.02 |

| Sequence | switch fluorescence ratio |
| --- | --- |
| CTAGCTTGTA | 1.04 |
| GGCATAGGGT | 0.997 |
| TTGATTAATG | 1.01 |
| GGTGGCGGTG | 0.981 |
| GATCGTGTTT | 0.999 |
| CGTCTTACCT | 1.07 |
| TGTGGATCTT | 0.995 |
| GGCTTAGTAA | 1.03 |
| AATCACATTT | 1.02 |
| TTCATTTTCT | 0.942 |
| GCATAAAACG | 1.02 |
| CGCGACCAGG | 1.47 |
| TAAAAAGTCG | 1.06 |
| GTATTGGGAA | 1.03 |
| AACCATTTG | 1.02 |
| TCATGAGAAC | 1.01 |
| GTATTAATTC | 0.949 |
| AATAGTTGAC | 0.958 |
| TTCATGTTAT | 0.981 |
| CAATAAGTGC | 0.991 |
| GCGAAGGACA | 1 |
| CCGGCAGCG | 0.978 |
| AAATACAAGT | 1.08 |

| Sequence | switch fluorescence ratio |
| --- | --- |
| CTATTTTACG | 1.03 |
| ACTGGTGCTC | 1.09 |
| GGGTTATGAT | 0.98 |
| ACGGTGAAGC | 0.971 |
| GGTTAGAACA | 0.971 |
| AAAGAGTCAG | 1.02 |
| CGTTTACCA | 1 |
| ACCGGCTTCC | 1.09 |
| GTCGCACCTA | 1.04 |
| TGATACTTT | 0.979 |
| AATGCTTTC | 1.09 |
| CAGAACTTTG | 0.999 |
| CAGTATGCAA | 1.23 |
| TTGCTGCCCC | 1.02 |
| CGGAATTGGT | 0.984 |
| CAGGGAAAGG | 0.961 |
| CTTATCAATA | 1.09 |
| ATTAGCTAA | 1.02 |
| GTTTCATGAG | 0.965 |
| GATCCTGCTC | 1.08 |
| TATGGTATG | 1 |
| GGCACTGATG | 1.04 |
| GTGATTACTT | 1 |

| Sequence | switch fluorescence ratio |
| --- | --- |
| ACTACAATGA | 1.01 |
| TACGACGCTC | 1 |
| GTTTGCACAT | 1.01 |
| CACTTCAACT | 1.04 |
| GAGCAAATTA | 1.2 |
| TAAAGGGC | 1.06 |
| CCCGGAAAGT | 1.07 |
| AGTATACGTA | 1.05 |
| TTTGCAGTAG | 1.18 |
| TTCATACATG | 1.03 |
| AGGTCCTATG | 1.06 |
| CGATCGTGGT | 1.02 |
| TTGACACATG | 0.998 |
| GTGTTGCTAT | 0.984 |
| ACTTCCTTAT | 1.09 |
| TAGCTCCGGA | 1.04 |
| ATTGCAAGAA | 1.03 |
| AGTCATTGTA | 0.988 |
| TTAGCATTC | 1.55 |
| TAGTCATAGG | 0.968 |
